# Results as given in publication PMC12040169 (PLOS Biology, 2025).
# Some of the results follow.
# Tested on: T1, C. trachomatis L2/434/Bu expressing GFP (CTL2-GFP)
# T1 construct: L2/434/Bu GFP intracellular growth in HeLa cells
# Design: species or system HeLa; C. trachomatis total inclusion area by high-content imaging, normalised to DMSO
# Conditions: total inclusion area; 28.5 h, 10 µM; inhibitor
# Outline: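 Imaging read-out: GFP inclusions and Hoechst nuclei captured by high-content imaging after fixation. Inclusion area/number = chlamydial growth; nuclei count = host cell viability. MIC calculated per earlier method.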
row,SMILES,% of control remaining
1,COc1ccc(CCN2CCC(Oc3cncc(OCC4COc5ccccc5O4)n3)C2)cc1OC (centres unmarked) [CBK084389],76.2224
2,O=S(=O)(c1cccs1)N1CCc2ccccc2C1 [CBK044531],90.1843
3,O=C1Cc2cc3ccccc3cc2C2(CCN(CCC(F)=C(F)F)CC2)N1 [CBK040033],78.085
4,COc1ccc(N(CC(=O)Nc2ccc3c(c2)oc2ccccc23)S(=O)(=O)c2ccccc2)cc1 [CBK264814],121.206
5,COc1nccnc1OC1CCN(Cc2ccccc2-c2ccccc2)CC1 [CBK084246],75.0307
6,COc1cc(C=c2sc(=CC(=O)C(C)(C)C)[nH]c2=O)ccc1OCC(=O)O [CBK296948],107.157
7,NS(=O)(=O)c1ccc(NC(=O)CSc2ccc3ccccc3n2)cc1 [CBK265663],117.474
8,Cc1nn(C)c(C)c1OCC(=O)Nc1cc(C(C)(C)C)sc1C#N [CBK305383],48.3649
9,CCc1c(C)nc2c(-c3ccc(OC)c(OC)c3)cnn2c1O [CBK287962],101.228
10,COc1ccc(C(=O)C=c2[nH]c(=O)c(=Cc3ccc(C(=O)O)cc3)s2)cc1 [CBK295614],99.6618
11,Cc1ccc(NC(=O)Nc2ccc(F)cc2)cc1S(=O)(=O)N(C)C [CBK269482],81.0947
12,COc1cc(-c2nc(N)n[nH]2)cc(OC)c1OC [CBK288077],89.2861
13,Cc1cc(C)n(C2CCN(Cc3ccc4ccccc4n3)CC2)n1 [CBK281622],108.894
14,CC(=O)C1=C(O)C(=O)N(CC(=O)O)C1c1ccc(Br)cc1 (centres unmarked) [CBK286712],92.7979
15,O=C(Nc1ncccc1O)c1cnc2c(cnn2C2CCCC2)c1 [CBK305246],24.1213
16,FC(F)(F)c1ccnc(Sc2ccncc2)c1 [CBK093793],100.672
17,Cc1cccnc1C(NC(=O)C1CCN(Cc2cccn2C)CC1)c1ccc(Cl)cc1 (centres unmarked) [CBK148174],90.5276
18,Cc1ccc(NS(=O)(=O)c2ccc(OCC(=O)N3CCN(C)CC3)c(C)c2)cc1 [CBK267834],78.1012
19,COC1C(O)C(CO)OC1n1cnc2c(=O)[nH]c(N)nc21 (centres unmarked) [CBK201324],107.363
20,COc1cccc(NS(=O)(=O)c2cc(CC(=O)O)ccc2OC)c1 [CBK298333],71.8262
21,Cc1nnc(SCC(=O)Nc2nonc2C)s1 [CBK269227],101.133

row,SMILES,% of control remaining
1,Cc1noc(C)c1NC(=O)CN1CCOCC1 [CBK200381],50.5755
2,COc1cccc(C2(O)CCC3CN(C(C)=O)CC32)c1 (centres unmarked) [CBK283222],82.1992
3,c1coc(CNc2cncc(-c3cccs3)n2)c1 [CBK065630],137.329
4,O=S(=O)(c1ccc(F)cc1F)n1ccc2c(N3CCNCC3)nccc21 [CBK059061C],75.5127
5,O=C(C1CCC1)N1C2CCC1CC(O)(c1ccc(F)cc1)C2 (centres unmarked) [CBK283547],99.7388
6,O=C(NCc1ccccc1)c1ccc2[nH]nnc2c1 [CBK200368],91.2286
7,O=C(COc1ccccc1)N1CCCC1c1cccc(Cc2ccc(F)cc2)n1 (centres unmarked) [CBK286230],95.3796
8,CC1(C)C2CCC1(CS(=O)(=O)N1CCC(C(N)=O)CC1)C(=O)C2 (centres unmarked) [CBK269499],84.0466
9,CC(C)OC(=O)N1CCC(CNc2ncc(-c3ccc(S(C)(=O)=O)cc3)cn2)CC1 [CBK165367],56.9804
10,O=C(COc1ccccc1O)NCCN1CCOCC1 [CBK262243C],110.18
11,CSc1nsc(NC(=O)Nc2ccccc2)n1 [CBK027286],45.8472
12,O=C(NC1CCCN(c2cc(-c3ccncc3)n[nH]2)C1)c1ccsc1 (centres unmarked) [CBK288619],77.8897
13,c1ccc2cc(-c3cncc(NCc4ccncc4)n3)ccc2c1 [CBK037899],69.3754
14,CCNC(=O)N1CCN(CCOC(c2ccc(F)cc2)c2ccc(F)cc2)CC1 [CBK024943C],94.0633
15,CC1CCN(Cc2nc3c(c(=O)n(C)c(=O)n3C)n2CCN2CCOCC2)CC1 [CBK269291],114.989
16,Fc1ccccc1CN(CCCn1ccnc1)Cc1cccnc1 [CBK283099],116.589
17,CN(c1ccccc1C(N)=O)S(=O)(=O)c1ccc(S(=O)(=O)C(F)F)cc1 [CBK298289],95.631
18,COc1ccc(Nc2nc(-c3ccc(F)cc3)cs2)c(OC)c1 [CBK131705],94.8227
19,CN(C)CCN1CCN(c2nc(-c3ccc4c(c3)OCO4)cnc2N)CC1 [CBK063495],140.842
20,CC(NC(=O)C1CC(=O)N(Cc2ccccn2)C1)c1ccc(F)cc1 (centres unmarked) [CBK304552],107.377
